# The supplement of paper PMC6135742
# “And” between values parts separate entries of the source, which are not always exact repeats. Identical values can stand only once. Counter-ions that a name gives are not always drawn. ± gives the standard deviation of the averaged measurements. Over roughly 2,600 compounds, “total cell number (DAPI+ nuclei) relative to DMSO vehicle control” has its median near -1.4; the lowest 2% begin near -23. Some of the results follow.
# System: jimpy (Plp1 jimpy) mouse iPSC-derived oligodendrocyte progenitor cells
# Assay: total cell number (DAPI+ nuclei) relative to DMSO vehicle control (SDs above negative control mean); higher = more surviving cells
# Details: 10 µM; 3 days
# Procedure: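 Primary phenotypic screen of >3,000 bioactive compounds (Selleck L1700 and Sigma LO1280 libraries) at a single dose of 10 µM. Compounds were added to jimpy (Plp1 mutant) mouse iPSC-derived OPCs at the start of thyroid hormone-induced oligodendrocyte differentiation, one well per compound in 384-well plates. After 3 days cells were stained for MBP, Sox10 and DAPI and imaged with an Operetta system. MBP+ oligodendrocyte number and total cell number were expressed as the number of SDs above the mean of the DMSO negative control on the same plate (n=16 control wells per plate). Hits were defined as >=4 SD for oligodendrocytes and >=2 SD for total cells.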
row,Structure (SMILES),total cell number
1,Cn1cnc(CCN)c1 [1-Methylhistamine dihydrochloride],-0.978
2,CC(Cc1ccc(O)cc1)NCC(O)c1cc(O)cc(O)c1 (stereo not given) [Fenoterol hydrobromide],-1.09
3,"C/C(=C\c1csc(C)n1)[C@@H]1C[C@@H]2O[C@]2(C)CCC[C@H](C)[C@H](O)[C@@H](C)C(=O)C(C)(C)[C@@H](O)CC(=O)O1 [Epothilone B (EPO906, Patupilone)]",-2.71
4,Clc1cnc(Oc2ccc(Oc3ncc(Cl)cc3Cl)cc2)c(Cl)c1,-1.78
5,CNCCc1ccc(O)c(O)c1 [N-Methyldopamine hydrochloride],-1.99
6,COC[C@H]1OC(=O)c2coc3c2[C@@]1(C)C1=C(C3=O)[C@@H]2CCC(=O)[C@@]2(C)C[C@H]1OC(C)=O [Wortmannin],-4.55
7,COc1ccc2c(c1)[C@]13CCCC[C@@H]1[C@H](C2)N(C)CC3 [Dextromethorphan hydrobromide monohydrate],-1.39
8,C=C[C@H]1CN2CC[C@H]1C[C@H]2[C@H](O)c1ccnc2ccccc12 [Cinchonidine],-0.104
9,Cc1cccc(C(C)c2c[nH]cn2)c1C (stereo not given) [Medetomidine HCl],-1.02
10,CN1[C@@H]2CC(O)C[C@H]1[C@@H]1O[C@@H]12 (stereo not given in full) [Scopine],-0.104
11,CN1[C@@H]2CC(O)C[C@H]1[C@@H]1O[C@@H]12 (stereo not given in full) [Scopine HCl],0.599
12,S=C(NC1CCCCC1)N1CCC(c2cnc[nH]2)CC1 [Thioperamide maleate],-0.714
13,NC(N)=NOCC[C@H](N)C(=O)O [L-Canavanine sulfate],-1.25
14,NC(N)=NOCC[C@H](N)C(=O)O [L-Canavanine],-0.705
15,N[C@@H](Cn1oc(=O)[nH]c1=O)C(=O)O [(+)-Quisqualic acid],0.0463
16,CC1(C)CC(O)CC(C)(C)N1[O] [Tempol],0.127
17,CC(C)(C)c1cc(C(C)(C)C)c2c(c1)C(O)(C(F)(F)F)C(=O)O2 (racemic),-1.66
18,O=c1[nH]c2ccccc2n1CCCN1CCC(n2c(=O)[nH]c3cc(Cl)ccc32)CC1 [Domperidone],-4.04 ± 1.3
19,CCCCC/C=C\C/C=C\C/C=C\C/C=C\CCCC(=O)NCc1ccc(O)c(OC)c1 [Arvanil],-8.09
20,CCS(=O)(=O)Nc1cccc(C(=C2CCCCC2)c2cnc[nH]2)c1,1.08
21,CC[C@@H](C(N)=O)N1CCCC1=O [Levetiracetam],-0.467 ± 0.87
22,O=C(O[C@H]1C[C@H]2CC[C@@H](C1)[N+]21CCCC1)C(O)(c1ccccc1)c1ccccc1 [Trospium chloride],0.365
23,COc1ccc(C(=O)N2CCCC2=O)cc1 [Aniracetam],-2.1 ± 0.41
24,CCCCCCCCCCCCCC(=O)O[C@@H]1[C@@H](C)[C@@]2(O)[C@@H](C=C(CO)C[C@]3(O)C(=O)C(C)=C[C@@H]23)[C@@H]2C(C)(C)[C@]12OC(C)=O [Phorbol 12-myristate 13-acetate],-0.106
25,O=C1/C(=C/c2ccccc2)C[C@@]2(O)[C@H]3Cc4ccc(O)c5c4[C@@]2(CCN3CC2CC2)[C@H]1O5 [BNTX maleate salt hydrate],-10.3

row,Structure (SMILES),total cell number
1,Nc1ccncc1 [4-Aminopyridine],-1.16
2,C[N+]1(C)CCOC(O)(c2ccc(-c3ccc(C4(O)C[N+](C)(C)CCO4)cc3)cc2)C1 (stereo not given) [Hemicholinium-3],-1.43
3,CN(C)Cc1c[nH]c2ccccc12 [Gramine],2.21
4,C[N+](C)(C)CC#CCN1CCCC1=O [Oxotremorine methiodide],-1.48
5,NC(=O)c1ccc(OCC(O)CN2CC=C(c3ccc(F)cc3)CC2)cc1 (stereo not given),7
6,CC(C)(C)OC(=O)NC1[C@H]2CNC[C@@H]12 (stereo not given in full),-1.97
7,NC(=O)CN1CC(O)CC1=O (stereo not given) [Oxiracetam],-1.12
8,C1=C2CCCN[C@H]2[C@@H]2C[C@H]1[C@H]1CCCCN1C2 [Aloperine],-2.1
9,CC(N)Cc1c[nH]c2ccc(OCc3cccs3)cc12 (stereo not given),-5.05
10,CN1CCC(c2c[nH]c3ccc(O)cc23)CC1,-0.705 and -1.42
11,C[N+](C)(C)CCCCCCCCCC[N+](C)(C)C [Decamethonium Bromide],2.19
12,C[N+](C)(C)CCCCCCCCCC[N+](C)(C)C [Decamethonium dibromide],-1.53
13,C[N+]1(C)[C@@H]2CC[C@H]1C[C@@H](OC(=O)C(CO)c1ccccc1)C2 (stereo not given in full) [Atropine methyl nitrate],-1.08
14,C[N+]1(C)[C@@H]2CC[C@H]1C[C@@H](OC(=O)C(CO)c1ccccc1)C2 (stereo not given in full) [Atropine methyl bromide],-1.18
15,"CC1C2Cc3ccc(O)cc3C1(C)CCN2CC1CC1 (single isomer, unassigned; (+)) [(+)-Cyclazocine]",-1.89
16,CN1C[C@H](C(=O)N[C@]2(C)O[C@@]3(O)[C@@H]4CCCN4C(=O)[C@H](Cc4ccccc4)N3C2=O)C[C@@H]2c3cccc4[nH]cc(c34)C[C@H]21 [Dihydroergotamine methanesulfonate],-3.83
17,CC(CCc1ccccc1)NC(C)C(O)c1ccc(O)cc1 (stereo not given) [Nylidrin hydrochloride],-0.269
18,O=C(O)CNC(=O)c1c(O)c2ccccc2n(Cc2ccccc2)c1=O,-0.0444
19,N=C(N)c1ccc(CS(=O)(=O)F)cc1 [4-Amidinophenylmethanesulfonyl fluoride hydrochloride],-1.52
20,CC[C@@]1(O)C(=O)OCc2c1cc1n(c2=O)Cc2cc3ccccc3nc2-1 [(S)-(+)-Camptothecin],-9.49
21,CC[C@@]1(O)C(=O)OCc2c1cc1n(c2=O)Cc2cc3ccccc3nc2-1 [Camptothecin],-22.6
22,NC(CCP(=O)(O)O)C(=O)O (racemic) [(±)-2-Amino-4-phosphonobutyric acid],-1.18
23,CN1c2ccccc2C(NCCCCCCC(=O)O)c2ccc(Cl)cc2S1(=O)=O (stereo not given) [Tianeptine sodium],3.7
24,CCNC(=O)C[C@@H]1N=C(c2ccc(Cl)cc2)c2cc(OC)ccc2-n2c(C)nnc21,-9.9
25,C#C[C@]1(O)CC[C@H]2[C@@H]3CCC4=Cc5nc6nc7ccccc7n6cc5C[C@]4(C)[C@H]3CC[C@@]21C,-3.64
